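Tested at 5 concentrations; 48 h exposure; 96-well plates; endpoints linearly interpolated, else capped at highest concentration. GI50 is the concentration that inhibits growth by half.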 The source holds more than one record for some entries. This list holds those alone. There may be further records. The tests behind the records often covered other concentration ranges, which the source does not state; some values may only mark the edge of a range.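 TGI: total growth inhibition.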
Columns and labels:
Assay in all cases: DTP human tumour cell line panel, 48 h
T-47D breast = tested on: T-47D breast
A498 renal = tested on: A498 renal
KM12 colon = tested on: KM12 colon
RXF 393 renal = tested on: RXF 393 renal
SF-539 CNS = tested on: SF-539 CNS
SK-MEL-5 melanoma = tested on: SK-MEL-5 melanoma
SK-OV-3 ovarian = tested on: SK-OV-3 ovarian
786-0 renal = tested on: 786-0 renal
CAKI-1 renal = tested on: CAKI-1 renal
CCRF-CEM leukemia = tested on: CCRF-CEM leukemia
COLO 205 colon = tested on: COLO 205 colon
EKVX NSCLC = tested on: EKVX NSCLC
HCC-2998 colon = tested on: HCC-2998 colon
HOP-62 NSCLC = tested on: HOP-62 NSCLC
HOP-92 NSCLC = tested on: HOP-92 NSCLC
HS 578T breast = tested on: HS 578T breast
HT29 colon = tested on: HT29 colon
IGROV1 ovarian = tested on: IGROV1 ovarian
M14 melanoma = tested on: M14 melanoma
MALME-3M melanoma = tested on: MALME-3M melanoma
MCF7 breast = tested on: MCF7 breast
MOLT-4 leukemia = tested on: MOLT-4 leukemia
NCI-H23 lung = tested on: NCI-H23 lung
NCI-H522 lung = tested on: NCI-H522 lung
NCI/ADR-RES ovarian = tested on: NCI/ADR-RES ovarian
OVCAR-3 ovarian = tested on: OVCAR-3 ovarian
OVCAR-8 ovarian = tested on: OVCAR-8 ovarian
PC-3 prostate = tested on: PC-3 prostate
RPMI-8226 leukemia = tested on: RPMI-8226 leukemia
SF-268 CNS = tested on: SF-268 CNS
SF-295 CNS = tested on: SF-295 CNS
SK-MEL-28 melanoma = tested on: SK-MEL-28 melanoma
SN12C renal = tested on: SN12C renal
SNB-19 CNS = tested on: SNB-19 CNS
SNB-75 CNS = tested on: SNB-75 CNS
SR leukemia = tested on: SR leukemia
UACC-62 melanoma = tested on: UACC-62 melanoma
UO-31 renal = tested on: UO-31 renal
HCT-116 colon = tested on: HCT-116 colon
HCT-15 colon = tested on: HCT-15 colon
HL-60(TB) leukemia = tested on: HL-60(TB) leukemia
K-562 leukemia = tested on: K-562 leukemia
NCI-H226 lung = tested on: NCI-H226 lung
NCI-H460 lung = tested on: NCI-H460 lung
OVCAR-4 ovarian = tested on: OVCAR-4 ovarian
SK-MEL-2 melanoma = tested on: SK-MEL-2 melanoma

**Q.** How did the TGI (T-47D breast) turn out when C=C(Cl)C(Br)(CCl)CCC(Br)C(C)(C)Cl (stereo not given) was run?
**A.** 4.74 µM and 74.8 µM

**Q.** For O=c1cc(-c2cccc3ccccc23)[nH]c2ncccc12, which TGI (A498 renal) is on record?
**A.** 428 nM and 11.7 nM

**Q.** And the TGI (KM12 colon)?
**A.** 495 nM and 36.4 µM

**Q.** And the TGI (RXF 393 renal)?
**A.** 173 nM and > 100 µM

**Q.** And the TGI (SF-539 CNS)?
**A.** 96.5 nM and > 100 µM

**Q.** And the TGI (SK-MEL-5 melanoma)?
**A.** 20.1 nM and 241 nM

**Q.** What about the TGI (SK-OV-3 ovarian) of the same compound?
**A.** 741 nM and > 100 µM

**Q.** COc1cc(NCc2ccc3nc(N)nc(N)c3c2C)cc(OC)c1OC (tested in a mixture with another compound) was tested. Which TGI (786-0 renal) did it give?
**A.** 381 nM and 37.5 µM

**Q.** What about the GI50 (A498 renal) of the same compound?
**A.** 98.9 µM [1 test] and 5.78 nM [mean of 3 tests]

**Q.** What about the GI50 (CAKI-1 renal) of the same compound?
**A.** 96 µM [1 test] and 5.6 nM [mean of 4 tests]

**Q.** What about the TGI (CAKI-1 renal) of the same compound?
**A.** 678 nM and 25.4 µM

**Q.** What about the GI50 (CCRF-CEM leukemia) of the same compound?
**A.** 28.4 nM [1 test] and 0.301 nM [mean of 4 tests]

**Q.** What about the GI50 (COLO 205 colon) of the same compound?
**A.** 16.1 µM [1 test] and 8.6 nM [mean of 3 tests]

**Q.** And the GI50 (EKVX NSCLC)?
**A.** 18.9 µM [1 test] and 766 nM [mean of 11 tests] and 39.9 nM [mean of 3 tests]

**Q.** What about the TGI (HCC-2998 colon) of the same compound?
**A.** 912 nM and 25.7 µM

**Q.** And the GI50 (HOP-62 NSCLC)?
**A.** 77.7 nM [1 test] and 1.26 nM [mean of 4 tests]

**Q.** And the TGI (HOP-62 NSCLC)?
**A.** 250 nM and 4.04 µM

**Q.** And the TGI (HOP-92 NSCLC)?
**A.** 716 nM and 18.7 µM

**Q.** What about the TGI (HS 578T breast) of the same compound?
**A.** 895 nM and 56.2 µM

**Q.** What about the GI50 (HT29 colon) of the same compound?
**A.** 17.9 nM [1 test] and 0.178 nM [mean of 3 tests]

**Q.** And the GI50 (IGROV1 ovarian)?
**A.** 59.3 nM [1 test] and 0.273 nM [mean of 4 tests]

**Q.** What about the GI50 (KM12 colon) of the same compound?
**A.** 93 nM [1 test] and 1.87 nM [mean of 3 tests]

**Q.** And the TGI (M14 melanoma)?
**A.** 641 nM, 24.1 µM, 38.4 µM

**Q.** What about the GI50 (MALME-3M melanoma) of the same compound?
**A.** 10.1 µM [1 test] and 2.96 nM [mean of 4 tests]

**Q.** What about the GI50 (MCF7 breast) of the same compound?
**A.** 40.4 nM [1 test] and 2.03 nM [mean of 3 tests]

**Q.** What about the GI50 (MOLT-4 leukemia) of the same compound?
**A.** 33.8 nM [1 test] and 0.238 nM [mean of 4 tests]

**Q.** And the GI50 (NCI-H23 lung)?
**A.** 76.2 nM [1 test] and 0.586 nM [mean of 4 tests]

**Q.** And the TGI (NCI-H23 lung)?
**A.** 369 nM and 38.9 µM

**Q.** What about the GI50 (NCI-H522 lung) of the same compound?
**A.** 178 nM [1 test] and 586 nM [mean of 13 tests] and 9.29 nM [mean of 4 tests]

**Q.** And the TGI (NCI-H522 lung)?
**A.** 33.5 µM [1 test] and 58 µM [mean of 13 tests] and 678 nM [mean of 4 tests]

**Q.** What about the GI50 (NCI/ADR-RES ovarian) of the same compound?
**A.** 452 nM [1 test] and 21.4 nM [mean of 3 tests]

**Q.** And the GI50 (OVCAR-3 ovarian)?
**A.** 38.4 µM [1 test] and 33.8 nM [mean of 4 tests]

**Q.** What about the GI50 (OVCAR-8 ovarian) of the same compound?
**A.** 57.3 nM [1 test] and 0.751 nM [mean of 4 tests]

**Q.** What about the TGI (OVCAR-8 ovarian) of the same compound?
**A.** 249 nM and 33.3 µM

**Q.** And the GI50 (PC-3 prostate)?
**A.** 520 nM [1 test] and 25 nM [mean of 3 tests]

**Q.** What about the GI50 (RPMI-8226 leukemia) of the same compound?
**A.** 582 nM [1 test] and 3.52 nM [mean of 3 tests]

**Q.** And the TGI (RPMI-8226 leukemia)?
**A.** 4.8 µM and 57.7 µM

**Q.** What about the GI50 (RXF 393 renal) of the same compound?
**A.** 10.8 µM [1 test] and 4.94 nM [mean of 2 tests]

**Q.** What about the GI50 (SF-268 CNS) of the same compound?
**A.** 76.1 nM [1 test] and 0.895 nM [mean of 4 tests]

**Q.** And the TGI (SF-295 CNS)?
**A.** 490 nM and 29.1 µM

**Q.** What about the GI50 (SF-539 CNS) of the same compound?
**A.** 18.8 nM [1 test] and 0.261 nM [mean of 3 tests]

**Q.** What about the TGI (SF-539 CNS) of the same compound?
**A.** 144 nM, 32.1 µM, 15.4 µM

**Q.** And the GI50 (SK-MEL-28 melanoma)?
**A.** 5.19 µM [1 test] and 9.97 nM [mean of 3 tests]

**Q.** What about the GI50 (SK-MEL-5 melanoma) of the same compound?
**A.** 38.5 nM [1 test] and 0.19 nM [mean of 4 tests]

**Q.** What about the TGI (SK-MEL-5 melanoma) of the same compound?
**A.** 162 nM, 20 µM, 34.6 µM

**Q.** And the TGI (SK-OV-3 ovarian)?
**A.** 699 nM and 86.7 µM

**Q.** And the TGI (SN12C renal)?
**A.** 310 nM and 80.1 µM

**Q.** And the GI50 (SNB-19 CNS)?
**A.** 803 nM [1 test] and 42.6 nM [mean of 3 tests]

**Q.** What about the GI50 (SNB-75 CNS) of the same compound?
**A.** 181 nM and 22.3 µM

**Q.** What about the GI50 (SR leukemia) of the same compound?
**A.** 22.2 µM [1 test] and 25 nM [mean of 3 tests]

**Q.** And the GI50 (UACC-62 melanoma)?
**A.** 42 nM [1 test] and 0.184 nM [mean of 3 tests]

**Q.** What about the TGI (UACC-62 melanoma) of the same compound?
**A.** 97.1 nM and 6.14 µM

**Q.** What about the GI50 (UO-31 renal) of the same compound?
**A.** 68.1 nM [1 test] and 3.33 nM [mean of 3 tests]

**Q.** What about the TGI (UO-31 renal) of the same compound?
**A.** 370 nM, 783 nM, 103 µM

**Q.** What does the source list for CCC(/C=C/C1OC(=O)C=CC1C)=C\C(C)C/C=C/C(C)=C/C(C)C(=O)C(C)C(O)C(C)C/C(C)=C/C(=O)O (stereo not given)?
**A.** TGI (A498 renal): 0.0269 nM and 6.28 µM; TGI (CAKI-1 renal): 3.34 nM and 9.44 µM; TGI (CCRF-CEM leukemia): 1.67 nM and 5.48 µM; TGI (COLO 205 colon): 0.305 nM and 10.4 µM; TGI (HCC-2998 colon): 0.197 nM and 6.33 µM; TGI (HCT-116 colon): 0.0159 nM and 4.29 µM; TGI (HCT-15 colon): 0.408 nM and 33.6 µM; TGI (HL-60(TB) leukemia): 0.00696 nM and 3.8 µM; TGI (HOP-62 NSCLC): 2.81 nM and 6.08 µM; TGI (HOP-92 NSCLC): 0.0416 nM and 18.8 µM; TGI (K-562 leukemia): 0.113 nM and 5.99 µM; TGI (MCF7 breast): 0.00121 nM and 3.39 µM; TGI (MOLT-4 leukemia): 0.0466 nM and 5.96 µM; TGI (NCI-H226 lung): 0.641 nM and 3.26 µM; GI50 (NCI-H460 lung): < 0.001 nM and 701 nM; TGI (NCI-H460 lung): 0.114 nM and 2.43 µM; TGI (NCI-H522 lung): 0.031 nM and 4.03 µM; TGI (OVCAR-3 ovarian): 0.0895 nM and 1.7 µM; TGI (OVCAR-4 ovarian): 0.0157 nM and 6.62 µM; TGI (RPMI-8226 leukemia): 0.0675 nM and 8.99 µM; TGI (SF-539 CNS): 0.016 nM and 3.87 µM; TGI (SK-MEL-2 melanoma): 0.103 nM and 9.57 µM; TGI (SK-MEL-28 melanoma): 3.21 nM and 10.7 µM; TGI (SK-MEL-5 melanoma): 0.492 nM and 1.44 µM; TGI (UACC-62 melanoma): 0.0794 nM and 7.47 µM; TGI (UO-31 renal): 0.46 nM and 6.61 µM

Reference: PubChem BioAssay (NCI)
